Laboratory results as given in the supplement of paper PMC10126150.
Values marked as one replicate rest on one cluster of the flow cell; about a third of the high ones do not repeat.

System: ATP
Assay: switch fluorescence ratio, 500 uM ATP over buffer (Cy3 cluster intensity, sum of 5 cycles each) (fold (ratio)); higher = stronger signal-on switching upon ATP binding; sequences stand for … in TCGTCGGCAGCGTCAGATGTGTATAAGAGACAGTTTTTTTTTTTTTTTTTTTTTTTTT…TC
Settings: aptamer strand: ATP DNA aptamer (quencher-CACCTGGGGGAGTATTGCGGAGGAAGG + anchor), 100 nM annealed; ATP concentration: 500 uM; one replicate
Summary of the method: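 Switching-strand clusters labelled with Cy3 on a modified Illumina MiSeq flow-cell were annealed to 100 nM quencher-labelled ATP aptamer, imaged in selection buffer, and re-imaged after 15 min with 500 uM ATP at 22 °C. This was done over five cycles with NaOH stripping and re-annealing in between. The fluorescence ratio is summed target-cycle over summed buffer-cycle Cy3 intensity per cluster, averaged per switch-domain sequence, excluding clusters outside 100-1000 RFU.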
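Note: ATP exposure 15 min at 22 °C before imaging.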

Sequence | switch fluorescence ratio
GAGGCGCCCG | 0.951
GAGAGGAAGG | 1.02
CCTGACGCTG | 1.44
TAATATTCGG | 0.984
TTGAGTTAA | 0.989
TTGGTTGACT | 0.937
TTGCCGGTTG | 0.975
TGGAAGCCAA | 1
CGAGGCCAAA | 1.22
CAGAGGCCCT | 1.06
AGCTACTATT | 1.01
AAAATCGCCG | 1.02
CTGGGGTTCA | 1.04
CCGGGAACCG | 1.04
AGCTAGTCAT | 1.02
TCAAATTTCG | 0.986
CGCGATCTTT | 1.11
GTAGGATGTT | 0.963
GAAAGTTCCG | 0.986
AGGATCTACC | 1.27
AAAATAGGTC | 1.04
TTCAGTATAT | 0.997
GTTCGTTGTC | 1.04

Sequence | switch fluorescence ratio
CCATGGAATG | 1.02
AATGGATATT | 0.984
TGGCCTCGTA | 1.02
TAGAAGTGGA | 1.01
GGATAATAGC | 1.02
TTAGCTCGT | 0.994
TGGTACATGA | 0.992
CCATAAATAT | 1.01
GACACCTGTC | 1.18
TGATTCTGT | 0.98
TTGGGCGTCA | 1.02
TTCATCACCT | 1.17
GAATGAAATG | 1
TGAGTAAAGA | 0.977
ACATCAAAGA | 0.996
GCCTTTAGTC | 1.01
CTGCATAAGG | 1.18
GCTTCGGGGA | 1.02
TCAGGAACAT | 1.04
CTTCTTGCAC | 1.18
GGTAGAGTAT | 1.03
AACGAGGTAG | 0.949
TTCAATATCG | 1.06

Sequence | switch fluorescence ratio
CCTAGGTGGA | 1.48
GGCCAGGTAA | 1.07
GAGGTCTAGA | 0.991
CAACAGTTAC | 1.18
AAACTAGATT | 1.03
CTCGTTAGTG | 1.02
CGCAGTGTCG | 1.03
CGAGTCAAAG | 1.02
AAGTGGGTGA | 0.978
GAACACCTTT | 1.05
CCGTTCTCAC | 1.4
ATCGAAGGCG | 0.929
ATCGCGTCGG | 0.981
ACGCCCCATC | 1.13
CTGCAAGTTA | 1.14
GCCTAACACA | 1.01
GATGTTAGCG | 0.956
TGCGAGTTGT | 0.965
AAGATTTATG | 0.972
ACACTTACG | 1.57
CGAGTTGAGG | 1.01
TAAACGAAGG | 0.998
AAAATGGGA | 0.98

Sequence | switch fluorescence ratio
AATGGAAA | 0.975
CGTCAATCGC | 2.05
ATTATAGTGT | 0.975
ACAAAAGGTG | 1.32
CAAGGGAGTA | 1.01
TATCTATACT | 1.03
CGTTTAAAAA | 0.872
TATCCGCTGG | 1.42
AGCAGACGAT | 1.28
AAAAAGGTA | 0.989
GCGGGTAGAG | 1.03
GTCGTTATCC | 1
GCTTACTATT | 1.02
GGGCGCGGGT | 1.03
GACATTAGAT | 0.99
AATCTTATTG | 0.962
TGCCTGGAGC | 1.03
TGGTCGACCT | 1.01
CGGAAATTA | 1
GTGCTCAGAG | 0.999
TACTCAGGGA | 1.18
AGAGAAGAAC | 1.01
TCCGAGCCGT | 1.06

Sequence | switch fluorescence ratio
GCGGTCAAGT | 0.972
TATGCTGTGC | 0.992
ACCTTCTGCT | 1.06
GACGTCCCGG | 0.97
CAAAGCGTGG | 0.987
CCGGACAGAT | 1.12
GGTGCAATTT | 1.1
CGAAGGTGCT | 1.08
TTAAAGTCCA | 0.99
TATCAGCAGG | 1.05
ACGGCTTGG | 0.952
CGGCGACTG | 0.989
CGGGTCAGTC | 1.06
ACTTGATCAG | 1.02
TTGGCGCTCA | 0.986
CAGGCTGCTG | 0.993
CGCCCAGTTT | 1.11
GCTAGTTTTA | 0.946
CCGCGGAGTT | 0.997
CTTGGGACTA | 1.02
CTTTTGGG | 0.974
GATACAGAGA | 1.05
CCTCACTCTT | 1.18

Sequence | switch fluorescence ratio
TACGTGGTG | 1.02
GTTAAGTATT | 0.955
CAGTACGAAG | 1.06
AATCTCAAGT | 1
ATTTAGGCGA | 1
GCCTGTGATT | 0.992
GGGGAATGTC | 1.08
GACTGAGCGT | 1
CGCGTCGCGC | 1
TTTTAGCACA | 1.1
GCTAATGTCG | 1.13
AAGTCGGAAG | 1
AGGTCCCATG | 1.01
AAAGACAGTC | 1.07
CATTCCCGGC | 1.14
CACTTTTTC | 1
TTGGTGCAG | 1.01
TGGAAGGTA | 0.994
TCTGCAGGGG | 1.21
TTGAATCCCG | 0.999
GCCGGCATGC | 1.03
TGACCACAAC | 1.14
CCAATTAGGT | 1.03

Sequence | switch fluorescence ratio
CATACGGGTT | 0.985
AGACGAACAA | 1.6
CTTGCGGGCA | 0.982
ATCTCGACAC | 0.969
CGTGACTTGG | 0.988
CCGGCTTATG | 1.01
GTCGGAGAGT | 0.977
GCCTGAGGTG | 1.46
TCAGCTAGGA | 0.995
ATAATGCTCC | 1.45
ATAACTAGTG | 1
TATCGCCTTT | 0.99
TAGAGATACC | 1.02
TCAAACTATA | 1.03
TTCATTCGG | 0.989
TCTCTCCCG | 1.12
TATAACGTGT | 1.03
ACCATTTTAT | 1.02
GTATATTTTA | 0.985
